For one protein, Km and kcat results are on record in paper PMC3179854.

Substrate in the data set: COc1ccc2c(c1)[C@]13CCCC[C@@H]1[C@H](C2)N(C)CC3
Nature of the data set: not read. Particulars: other: CYP3A4, Michaelis-Menten fit.

B1: CYP3A4 (Homo sapiens) (protein)
chain: MALIPDLAMETWLLLAVSLVLLYLYGTHSHGLFKKLGIPGPTPLPFLGNILSYHKGFCMFDMECHKKYGKVWGFYDGQQPVLAITDPDMIKTVLVKECYSVFTNRRPFGPVGFMKSAISIAEDEEWKRLRSLLSPTFTSGKLKEMVPIIAQYGDVLVRNLRREAETGKPVTLKDVFGAYSMDVITSTSFGVNIDSLNNPQDPFVENTKKLLRFDFLDPFFLSITVFPFLIPILEVLNICVFPREVTNFLRKSVKRMKESRLEDTQKHRVDFLQLMIDSQNSKETESHKALSDLELVAQSIIFIFAGYETTSSVLSFIMYELATHPDVQQKLQEEIDAVLPNKAPPTYDTVLQMEYLDMVVNETLRLFPIAMRLERVCKKDVEINGMFIPKGVVVMIPSYALHRDPKYWTEPEKFLPERFSKKNKDNIDPYIYTPFGSGPRNCIGMRFALMNMKLALIRVLQNFSFKPCKETQIPLKLSLGGLLQPEKPVVLKVESRDGTVSGA
B1: the Km (in general, the concentration of substrate that gives half-maximal velocity) amounted to 106 ± 64 µM; the kcat (commonly the number of substrate molecules converted per active site and unit of time at saturation) is 0.633 ± 0.133 s⁻¹.
